# Out of some 310,000 compounds screened, about 18,000 (5.8%) were called active. The shares of active, inactive and inconclusive entries below differ from those in the screen. Calls come from the whole dose curve; as a rule, active = well fitted inhibition curve with a large enough effect; inconclusive = small, poorly fitted or top-dose-only effect, or another doubt; inactive = no such curve, though single readings can be large or run the other way. Potencies of inconclusive entries are left out as doubtful fits.
# Test: Primary qHTS for delayed death inhibitors of the malarial parasite plastid, 48 hour incubation
# Settings: P. falciparum luciferase growth in erythrocytes; series mostly up to 28.7 µM
# How it was run: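 Erythrocytes infected with P. falciparum carrying an integrated firefly luciferase reporter (2% hematocrit, 0.1% parasitemia final) were exposed to compounds in RPMI 1640 with 0.5% Albumax at 37 C, 5% CO2. Growth inhibition was scored as reduced luminescence.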
# Potency is the fitted concentration of half-maximal effect; tags give direction and shape of the fitted curve.
row,SMILES,Potency
1,CC(C)n1nccc1N(Cc1ccc(Cl)cc1)S(=O)(=O)c1ccccc1,"inconclusive [inhibitor, single point]"
2,COc1ccc(Br)cc1S(=O)(=O)N1CCCc2ccccc21,"inconclusive [inhibitor, single point]"
3,CC(=O)N1c2ccc(S(=O)(=O)NCCC(=O)Nc3ccccc3C)cc2CC1C (stereo not given),"inconclusive [inhibitor, partial curve, poor fit]"
4,CCOC(=O)c1[nH]c2ccc(OC)cc2c1NC(=O)CN1CCSCC1,"inconclusive [inhibitor, partial curve, poor fit]"
5,CC(NC(=O)CN1C(=O)NC2(CCCCCC2)C1=O)c1ccccc1Cl (stereo not given),inactive
6,Cc1ccc(C(=O)Nc2cccnc2N2CCN(C)CC2)cc1,inactive
7,COC(=O)CCC[N+](C)(C)C,"inconclusive [inhibitor, single point]"
8,COc1ccc(-c2c3c(=O)n(C)c(=O)n(C)c3cn2C2CCCCC2)cc1,"inconclusive [inhibitor, partial curve]"
9,COc1ccc(CCNC(=O)C2CCCN(S(=O)(=O)c3cc(C)ccc3OC)C2)cc1OC (stereo not given),active: 11.7 µM
10,CCN(Cc1ccccc1)S(=O)(=O)c1cc(C(=O)NC2CCCCCC2)ccc1OC,"inconclusive [inhibitor, partial curve]"
11,COc1ccc(O)c(C(=O)c2cnc3onc(C)c3c2)c1,"inconclusive [inhibitor, partial curve]"
12,Cc1cccc(N(CC(=O)NCc2ccccc2)C(=O)Cn2nnc(-c3ccc(C)o3)n2)c1,"inconclusive [inhibitor, partial curve]"
13,O=C(CSc1ncn[nH]1)Nc1ccc(Cl)c(S(=O)(=O)N2CCOCC2)c1,"inconclusive [inhibitor, partial curve, poor fit]"
14,Cc1cccc(-c2cc3nc(C)c(C)c(NCCCn4ccnc4)n3n2)c1,active: 1.65 µM
15,COC(=O)C1=C(C)N(Cc2ccccc2)C(=NCc2ccccc2)N[C@H]1c1ccccc1,"inconclusive [inhibitor, partial curve, poor fit]"
16,CC(C)(C)c1ccc(NC(=O)c2ccccc2)c([N+](=O)[O-])c1,inactive
17,O=C(NCc1ccccn1)c1cccc([N+](=O)[O-])c1,"inconclusive [inhibitor, single point]"
18,C=CCC(=O)OCC(=O)Nc1ccc(Oc2ccccc2)cc1,"inconclusive [inhibitor, single point]"
19,O=C(O)CCn1nnc2ccccc21,inactive
20,C=C(C)CSc1nc(N)c(C#N)c(-c2ccc(C)cc2)c1C#N,"inconclusive [inhibitor, partial curve, poor fit]"
21,CCC1(C)CC2(CCCN(CCC(O)(c3ccccc3)c3ccccc3)C2)CCO1 (stereo not given),"inconclusive [inhibitor, single point]"
22,O=C(CSc1ncccn1)N1CCCC1,inactive

row,SMILES,Potency
1,CC(=O)N1CCc2cc(S(=O)(=O)NCCC(=O)Nc3cc(C)cc(C)c3)ccc21,"inconclusive [inhibitor, single point]"
2,Nc1c(C(=O)NCc2ccc3c(c2)OCO3)c2nc3ccccc3nc2n1CCCN1CCOCC1,"inconclusive [inhibitor, full curve]"
3,CCCN1CCN(C(c2cc3cc(OCC)ccc3[nH]c2=O)c2nnnn2C2CCCCC2)CC1 (stereo not given),"inconclusive [inhibitor, single point]"
4,CCC1=Nc2cc(C(=O)NCCN3CCOCC3)ccc2Sc2ccccc21,inactive
5,Cc1noc(C)c1CSCC(=O)Nc1nc2c(F)cc(F)cc2s1,"inconclusive [inhibitor, single point]"
6,COc1cc2c(cc1OC)C1O[C@](c3ccsc3)(C2)OC2=C1C(=O)OC1(CCCCC1)C2,"inconclusive [inhibitor, single point]"
7,COCCCN1C2=C(C(=O)CC(C)(C)C2)C(c2ccc(O)c(OC)c2)C2=C1CC(C)(C)CC2=O,"inconclusive [inhibitor, full curve, poor fit]"
8,CCN(Cc1ccccc1)C(=O)Cn1c(=O)n(-c2ccc(OC)cc2OC)c(=O)c2c(C)c(C)sc21,"inconclusive [inhibitor, single point]"
9,O=C(CN1CCN(c2ccccc2F)CC1)Nc1ccc2c(c1)CCC2,inactive
10,O=C(N/N=C/c1ccoc1)c1ccccc1Br,inactive
11,COc1cc(/C=C2\SC(=S)N(CCCCC(=O)O)C2=O)ccc1OS(=O)(=O)c1ccc(C)cc1,"inconclusive [inhibitor, single point]"
12,C=CCN(C(=O)c1csnn1)C(C(=O)NC1CCCCC1)c1ccc(C)cc1 (stereo not given),"inconclusive [inhibitor, single point]"
13,O=C(Cc1ccc(Cl)cc1)c1c[nH]c(C(=O)NCc2cccnc2)c1,"inconclusive [inhibitor, single point]"
14,O=C(O)c1ccc(Nc2c3ccccc3nc3ccccc23)cc1,active: 2.08 µM
15,O=C1CC(N2CCOCC2)=NN1c1ccc([N+](=O)[O-])cc1,"inconclusive [inhibitor, single point]"
16,COC(=O)C1CCCCN1C(=O)c1cccc(OC2CCN(C(=O)C3CC3)CC2)c1 (stereo not given),inactive
17,CC(=O)c1cccc(NS(=O)(=O)c2ccc(N/C=C\C(=O)c3ccc(C)cc3)cc2)c1,"inconclusive [inhibitor, single point]"
18,CC(C)C(=O)Nc1ccc(C(=O)NNC(=S)NC(=O)c2cccs2)cc1,"inconclusive [inhibitor, single point]"
19,CCCCn1c(N)c(N(CCOC)C(=O)c2sc3cc(F)ccc3c2Cl)c(=O)[nH]c1=O,"inconclusive [inhibitor, single point]"
20,O=C1c2ccccc2C(=O)c2c([N+](=O)[O-])ccc(O)c21,"inconclusive [inhibitor, single point]"
21,C=C1C(=O)O[C@@H]2C[C@@H](C)[C@@H]3C=CC(=O)[C@@]3(C)[C@@H](OC(=O)CC(=O)O[C@H]3[C@@H]4C(=C)C(=O)O[C@@H]4C[C@@H](C)[C@@H]4C=CC(=O)[C@]43C)[C@H]12,active: 1.04 µM
22,CCN(CC)CCN(C(=O)Cn1nnc(-c2ccc(C)o2)n1)C(C(=O)NC1CCCC1)c1ccc(F)cc1 (stereo not given),"inconclusive [inhibitor, single point]"

row,SMILES,Potency
1,COc1ccc(-n2c(SCC(=O)N3CCOCC3)nc3ccccc3c2=O)cc1,inactive
2,CC(C)OP(=O)(c1ccc(N(C)C)cc1)C(O)c1c(Cl)cccc1Cl (stereo not given),"inconclusive [inhibitor, full curve]"
3,Cc1ccc(Cn2cc(S(=O)(=O)c3ccc(C(C)C)cc3)c(=O)c3cc4c(cc32)OCO4)cc1,active: 9.28 µM
4,N#CC1=C(N)N(c2ccccc2)C2=C(C(=O)CCC2)C1c1ccccc1 (stereo not given),"inconclusive [inhibitor, partial curve]"
5,COc1cc2nc(N3CCN(C(=O)C4CCCO4)CC3)nc(N)c2cc1OC (stereo not given),"inconclusive [inhibitor, single point]"
6,COc1ccc(Nc2nc(NCC3CCCO3)nc(N)c2[N+](=O)[O-])cc1 (stereo not given),"inconclusive [inhibitor, single point]"
7,Cc1ccccc1OCc1nc(-c2ccc(NC(=O)c3ccco3)cc2)no1,"inconclusive [inhibitor, partial curve]"
8,COc1ccc(C(=O)NC2CCN(C(=S)NCCc3ccccc3)CC2)cc1,"inconclusive [inhibitor, single point]"
9,CCOC(=O)N1CCN(CC(=O)Nc2nc3ccc(OC)cc3s2)CC1,inactive
10,COc1ccc(Cl)cc1/C=C(\C#N)C(N)=O,inactive
11,COc1cccc2sc3ccc(C#CC4(N)CCCCC4)cc3c(=O)c12,"inconclusive [inhibitor, partial curve]"
12,Cc1cc(Br)c(OCc2ccc(C(=O)N/N=C/c3ccc[nH]3)cc2)c(Br)c1,active: 2.62 µM
13,Cc1ccc(-c2nnc(N3CCC(C)CC3)c3ccccc23)cc1,"inconclusive [inhibitor, single point]"
14,O=C1CC2(CCN(C(=O)c3ccccc3F)CC2)Oc2ccccc21,"inconclusive [inhibitor, single point]"
15,CCN(CC(=O)Nc1ccc2c(c1)OCCO2)C(=O)/C=C/c1ccc(OC)cc1OC,inactive
16,COc1ccc(-c2noc(CSc3nnc(Cc4ccccc4)n3-c3cccc(C)c3)n2)cc1OC,inactive
17,Cc1ccc(NS(=O)(=O)c2cccc3nsnc23)cc1,"inconclusive [inhibitor, single point]"
18,C#CCOCCOCCOCCNc1nc(N2CCN(C(=O)CCCCCCCCCCNC(=O)Cn3cc(CCCCCN)nn3)CC2)nc(N2CCN(C(=O)CCCCCCCCCCNC(=O)[C@H]([C@@H](C)CC)n3cc(CCCCN=C(N)N)nn3)CC2)n1,active: 2.08 µM
19,CCOc1ccc(S(=O)(=O)NCc2cccs2)cc1C(C)C,"inconclusive [inhibitor, partial curve]"
20,CCN(CC)S(=O)(=O)c1cccc(C(=O)NC(C(=O)Nc2nnc(C3CC3)s2)C(C)C)c1 (stereo not given),"inconclusive [inhibitor, partial curve, poor fit]"
21,COc1cccc(NC(=O)C2CC(=O)n3cnnc3S2)c1 (stereo not given),"inconclusive [inhibitor, full curve, poor fit]"
